In article PMC4336329 (PLoS ONE, 2015):
In all, about 310,000 compounds went through this assay and about 14,000 (4.5%) showed an effect of 50% or more. The effect is printed as a negative number. The list shows a part of the results.

What follows are compounds tested against human ether-à-go-go-related gene (hERG) potassium channel (human, UniProt Q12809) (assay: primary screen, population patch clamp on CHO cells stably expressing hERG).
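Note: peak tail current of the secondary pulse compared with the same well before compound.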

Sequence of human ether-à-go-go-related gene (hERG) potassium channel (Q12809 whole entry, looked up): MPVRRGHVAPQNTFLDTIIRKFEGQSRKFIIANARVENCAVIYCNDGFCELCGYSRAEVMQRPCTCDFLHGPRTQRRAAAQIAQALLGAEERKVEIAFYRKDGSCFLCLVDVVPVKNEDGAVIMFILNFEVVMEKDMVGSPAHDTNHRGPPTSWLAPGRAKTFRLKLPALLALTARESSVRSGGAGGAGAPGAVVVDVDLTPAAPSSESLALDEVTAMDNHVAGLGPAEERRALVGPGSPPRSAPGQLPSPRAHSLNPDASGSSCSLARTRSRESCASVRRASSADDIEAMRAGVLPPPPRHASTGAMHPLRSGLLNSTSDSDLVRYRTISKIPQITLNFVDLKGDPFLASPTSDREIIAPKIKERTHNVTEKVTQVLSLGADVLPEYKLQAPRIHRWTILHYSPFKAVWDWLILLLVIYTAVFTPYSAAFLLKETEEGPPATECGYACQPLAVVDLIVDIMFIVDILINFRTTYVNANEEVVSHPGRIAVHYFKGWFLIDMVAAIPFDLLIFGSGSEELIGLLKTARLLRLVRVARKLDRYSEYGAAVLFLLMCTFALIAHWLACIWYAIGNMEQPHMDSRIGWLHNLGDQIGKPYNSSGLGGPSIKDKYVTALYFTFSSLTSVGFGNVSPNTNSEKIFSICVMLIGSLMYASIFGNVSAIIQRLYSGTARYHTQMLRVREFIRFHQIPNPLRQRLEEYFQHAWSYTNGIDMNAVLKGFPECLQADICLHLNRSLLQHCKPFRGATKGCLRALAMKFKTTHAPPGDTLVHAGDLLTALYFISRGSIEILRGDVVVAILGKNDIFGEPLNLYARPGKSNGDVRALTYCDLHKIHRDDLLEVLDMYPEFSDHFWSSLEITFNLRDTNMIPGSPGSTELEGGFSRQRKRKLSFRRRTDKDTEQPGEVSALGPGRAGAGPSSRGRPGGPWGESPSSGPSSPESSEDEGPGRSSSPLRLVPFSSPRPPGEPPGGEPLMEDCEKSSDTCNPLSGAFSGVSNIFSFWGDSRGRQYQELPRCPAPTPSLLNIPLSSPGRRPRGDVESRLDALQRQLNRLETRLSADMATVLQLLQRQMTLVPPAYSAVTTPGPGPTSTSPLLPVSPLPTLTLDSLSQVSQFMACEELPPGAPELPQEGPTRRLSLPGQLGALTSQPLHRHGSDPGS

SMILES | hERG current change (%, negative = inhibition) at 10uM
CN(C)c1ccc(C=NCCc2ccc(S(N)(=O)=O)cc2)cc1 | 6.19%
CCC(=O)c1ccc(OCC(O)CN2CC(C)OC(C)C2)cc1.O=C(O)C(=O)O (stereo not shown) | 14%
Cc1c(C(=O)C(=O)N2c3ccccc3CC2C)c2ccccc2n1C (stereo not shown) | -13.3%
CC(C)(C)n1ncc2c(=O)n(CC(=O)N3CCCCC3)cnc21 | 22.9%
O=C(CSc1nc2ccccc2c(=O)n1-c1ccccc1)N1CCc2ccccc2C1 | -23.3%
Cc1ccc(C(=O)Nc2ccc3c4c(cccc24)CC3)cc1[N+](=O)[O-] | -1.54%
CN1CCc2c(sc(/N=C/c3ccco3)c2C(N)=O)C1 | -12.7%
CC1(C)N=C(c2ccc(Cl)cc2Cl)C(=O)N1 | -1.04%
O=C(Nc1cccc(Cl)c1)Nc1cc(S(=O)(=O)N2CCCCC2)ccc1Cl | 17.9%
COc1ccc(Nc2nc3ccccc3n3cnnc23)cc1 | -6.77%
O=C(NC1CCCCCCC1)C1CCN(S(=O)(=O)N2CCC3(CC2)OCCO3)CC1 | 2.09%
CCOc1ccc(C(C)=O)cc1NC(=O)/C=C\C(=O)O | -19.3%
CCCc1ncc(C[n+]2ccccc2C)c(N)n1.Cl.[Cl-] | 14.7%
C#CCOCCOCCOCCNc1nc(N2CCN(C(=O)Cn3cc(CCO)nn3)CC2)nc(N2CCN(C(=O)[C@H](C(C)C)n3cc(CCO)nn3)CC2)n1 | 4.31%
COc1ccc(C(=O)COC(=O)CCN2C(=O)[C@@H]3[C@H](C2=O)[C@@H]2C[C@H]3C(Br)C2Br)cc1 (stereo partly shown) | 11.8%
Cc1ccc(C(=O)N/N=C\c2ccc([N+](=O)[O-])s2)cn1 | -13.4%
CCn1nc(C)cc1C(=O)N1CCCC(N(C)CCc2ccc(OC)c(OC)c2)C1 (stereo not shown) | -16.2%
COCCCn1c(N)c(C(=O)NCc2ccco2)c2nc3ccccc3nc21 | 4.53%
COc1cccc(-c2nc(SC)nc3sc(C(=O)NC(C)(C)C)c(N)c23)c1 | 6.24%
COc1ccc(S(=O)(=O)Nc2ccc(-n3cnnn3)cc2)cc1[N+](=O)[O-] | 0.00208%
Cc1ccnc(SCC(=O)n2c3c(c4ccccc42)CC(C)CC3)n1 (stereo not shown) | 6.83%
CCn1nc(C)cc1C(=O)Sc1ccc(C)cc1 | 9.87%

SMILES | hERG current change (%, negative = inhibition) at 10uM
CCC(=O)c1ccc(OC)c(OC)c1 | 16.3%
COc1ccc(NC2CCCN(C(=O)c3cc4ncccn4n3)C2)cc1 (stereo not shown) | 17.9%
Cc1ccccc1-n1c(SC(C)C(=O)N2CCN(C)CC2)nc2ccccc2c1=O (stereo not shown) | -7.98%
Cc1ccc(S(=O)(=O)NC(=O)c2ccc(Br)o2)cc1 | 12.1%
C/C(=N\Nc1ccc(F)cc1)c1ccc(N2CCOCC2)c(F)c1 | 4.72%
O=c1cccc2n1CC1CC2CN(c2ncnc3c2cnn3-c2ccc(Cl)cc2)C1 (stereo not shown) | -62.1%
CCCC(C(=O)NC(C)(C)CC)N(Cc1ccco1)C(=O)CNS(=O)(=O)c1ccccc1 (stereo not shown) | -9.97%
CC(Sc1nnc(N)s1)C(=O)Nc1ccc(N2CCOCC2)cc1 (stereo not shown) | 4.88%
Cc1ccc(S(=O)(=O)O)c(C)c1N1CCCC1=O | 6.42%
COCCN1C=C(C(=O)OC)C(c2ccccc2C(F)(F)F)C(C(=O)OC)=C1 | -8.36%
Cl.OC(COc1cccc2ccccc12)CN1CCN(c2ccccn2)CC1 (stereo not shown) | -49.2%
CC(=O)c1ccc(NC(=O)C2CCN(S(=O)(=O)c3cccnc3)CC2)cc1 | -7.82%
O=C(O)c1ccc(/C=N/Nc2nc(N3CCCCC3)nc(N3CCCCC3)n2)cc1 | 18.4%
COc1ccc(/C=N/NC(=O)c2nnn(-c3nonc3N)c2-c2cccs2)cc1OC | 5.4%
CCOc1cccc2sc(=NC(=O)c3ccc(S(=O)(=O)N4CCOCC4)cc3)n(C)c12 | 0.44%
CCOCCc1nnc(NC(=O)c2ccc(OC)c(OC)c2)s1 | -0.919%
CCOC(=O)Nc1ccc2c(c1)N(C(=O)CCN(CC)CC)c1ccccc1CC2 | -50.3%
CCOc1ccc(CNC(=O)CCCc2cn(C)c3ccccc23)cc1OC | 2.54%
Cc1ccc2c(c1)nnn2C1CCN(CC(=O)c2ccc(Cl)cc2)CC1 | -45.9%
CCn1c(=O)c2c(nc(SCC(=O)NC3CCCC3)n2C)n(C)c1=O | 7.68%
COc1ccc(NC(=O)CC2CCCC2)cc1OC | -1.29%
CN(C(=O)COC(=O)c1cc(-c2ccco2)nc2ccccc12)C1CCS(=O)(=O)C1 (stereo not shown) | -24%

SMILES | hERG current change (%, negative = inhibition) at 10uM
Cc1cccc(NC(=O)CCC(=O)N/N=C/c2ccco2)c1 | 0.913%
CCn1cc(C(=O)O)c(=O)c2cc(F)c(N3CCN(C(=S)NC(=O)c4ccc(F)c(F)c4)CC3)cc21 | 41.6%
COC(=O)c1sccc1NC(=O)C1CC1 | 14.6%
FC(F)(F)c1cc(-c2ccco2)nc(NCc2cccs2)n1 | -1.51%
O=[N+]([O-])c1ccc(N2CCN(S(=O)(=O)c3ccccc3)CC2)cc1N1CCc2ccccc2C1 | 22.9%
CCCC(CCC)c1nc2ccncc2[nH]1.O=C(O)C(=O)O | 23.9%
Cc1ccccc1OCC(=O)N/N=C1\CC(=O)CC(C)(C)C1 | 5.61%
Cc1cc(C)c(/C=N/NC(=O)c2nnn(-c3nonc3N)c2COc2ccc(F)cc2)c(C)c1 | 2.94%
CCCCNC(=S)NNC(=O)c1cc(-c2cccnc2)nc2ccccc12 | -7.41%
CC(=O)c1c(C)[nH]c(C(=O)Nc2ccc(Cl)c(S(=O)(=O)N3CCOCC3)c2)c1C | -0.577%
O=C(COC(=O)COc1ccccc1)NCCC1=CCCCC1 | 14.9%
CC1CCCN(S(=O)(=O)c2ccc(C(=O)Nc3ccccc3-c3nc4ccccc4[nH]3)cc2)C1 (stereo not shown) | 0.964%
O=C(O)c1ccccc1NN=C1CCCCC1 | 12.7%
CNC(=S)Nc1ccc(Cc2ccncc2)cc1 | 6.78%
O=C(Nc1ncc(Cc2cccc(Cl)c2)s1)c1ccc([N+](=O)[O-])cc1 | 10.6%
CCOc1ccc(NC(=O)CCC(=O)NNC(=O)COc2ccc(C)cc2)cc1 | 16.1%
COc1ccccc1NS(=O)(=O)c1cc2c3c(c1)CC(=O)N3CCC2 | -22%
CCOc1ccc2nc(NC(=O)CN3C(=O)NC4(CCCC4)C3=O)sc2c1 | -11.8%
O=C(COc1ccc(Br)cc1)N1CCC(c2ccccc2)C1 (stereo not shown) | -45.2%
CC(=O)Nc1ccccc1OP1(=O)COc2ccccc2OC1 | 2.8%
O=c1oc2cc(O)ccc2c2oc3cc(O)ccc3c12 | 2.26%
O=C(N/N=C/C=C/c1ccc(Br)cc1)C(O)c1ccccc1 (stereo not shown) | 3.34%

SMILES | hERG current change (%, negative = inhibition) at 10uM
Cc1c(C(=O)NC2CCCCC2)oc2c1C(=O)CC(C)(C)C2 | 8.79%
COc1ccc(C(=O)O/N=C(\N)c2cccc(C)c2)cc1OC | 16.3%
Nc1c2c(nn1-c1ccc(F)cc1)CSC2 | 5.37%
Cc1ccc(-c2nc3cc(N)ccc3o2)cc1Br | 14.6%
CCCCC(=O)Nc1nc2ccc(C(=O)OC)cc2s1 | 2.24%
Cc1ccc(Cl)cc1NC(=O)CCCN1C(=O)c2cccnc2C1=O | -3.19%
O=C(O)CNC(=S)N(Cc1ccccc1Cl)C1CCCCC1 | 10.5%
COc1cc(C(=O)OCC(C)=O)cc(NC(=O)c2ccco2)c1OC | 29.2%
Cc1cccc2sc(N(CCCN(C)C)C(=O)c3ccc(Cl)s3)nc12.Cl | -69.7%
Cc1cc(C(=O)N2CCCc3ccccc32)no1 | 1.44%
COc1ccc(C2N(c3ccc(C)cc3)CCN2c2ccc(C)cc2)cc1O | 20.9%
CC(C)(C)c1ccc(S(=O)(=O)Nc2cccnc2)cc1 | -6.96%
COc1cc(-c2nc3cnccc3n2C)cc(OC)c1OC | -26.9%
CCn1c(COc2ccc(=O)n(-c3ccccc3)n2)nnc1SCc1ccccc1 | -48.2%
Cc1nc(N2CCN(C(=O)c3cnccn3)CC2)c2c3c(sc2n1)CC(C(C)(C)C)CC3 (stereo not shown) | -10.4%
O=C(NC1CCCCC1)c1ccc([N+](=O)[O-])o1 | 14.7%
O=C(O)CSC(C(=O)Nc1ccc(C(F)(F)F)cc1)c1ccccc1 (stereo not shown) | -1.32%
CCCc1c(C(=O)N/N=C/c2ccc(C)s2)nnn1-c1nonc1N | 19.6%
O=C(NC(=S)N1CCOCC1)c1cn(-c2ccccc2)nc1-c1ccc(F)cc1 | 16.3%
CSc1ccc(C(=O)C2CCCN(C(=O)c3ccc4c(c3)no[n+]4[O-])C2)cc1 (stereo not shown) | -5.37%
O=c1[nH]c(N2CCc3ccccc3C2)nc2c1CCC2 | -0.23%
CCC(C(=O)OC(C)C(=O)Nc1ccc(Cl)cn1)c1ccccc1 (stereo not shown) | 0.842%
